Source: publication PMC8179794, “Modeling cell-specific dynamics and regulation of the common gamma chain cytokines” (Cell reports, 2021)

Key:
IL2-Rα ectodomain = molecular target: T1, IL2-Rα ectodomain (UniProt P01589 22-240); test: BLI; Octet RED384; biotinylated monomeric IL-2/Fc fusion proteins loaded to Streptavidin biosensors at roughly 10% of saturation; IL-2Rα from 25 nM to 20 pM in PBS + 0.1% BSA; equilibrium binding used to determine the KD; quadruplicate across two days; conditions: both partners purified
T1 construct: IL-2 receptor alpha chain (IL-2Rα, CD25), ectodomain
T1 sequence (looked up): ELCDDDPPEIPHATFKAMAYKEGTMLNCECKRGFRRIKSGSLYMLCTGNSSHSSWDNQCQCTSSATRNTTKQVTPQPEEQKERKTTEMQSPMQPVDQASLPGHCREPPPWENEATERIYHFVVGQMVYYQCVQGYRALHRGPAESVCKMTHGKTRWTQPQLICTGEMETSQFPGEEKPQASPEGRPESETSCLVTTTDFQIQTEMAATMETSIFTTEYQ

IL-2Rβ/g Fc heterodimer = molecular target: T2, IL-2Rβ/g Fc heterodimer (UniProt P14784 27-240; P31785 23-262); test: BLI; Octet RED384; biotinylated monomeric IL-2/Fc fusion proteins loaded to Streptavidin biosensors at roughly 10% of saturation; IL-2Rβ/g titrated in 2x steps from 400 nM to 6.25 nM in PBS + 0.1% BSA; association up to 40 mins; 1:1 binding model fitted to the entire binding curve; quadruplicate across two days; conditions: both partners purified
T2 construct: IL-2 receptor beta chain (IL-2Rβ), ectodomain; common gamma chain (γc), ectodomain; also called IL-2Rβ/γc; IL-2Rβ/γ; source: Expi293 system, purified (MabSelect resin); not shown: Fc (heterodimeric); copies: 1 + 1
T2 sequence (looked up) 1: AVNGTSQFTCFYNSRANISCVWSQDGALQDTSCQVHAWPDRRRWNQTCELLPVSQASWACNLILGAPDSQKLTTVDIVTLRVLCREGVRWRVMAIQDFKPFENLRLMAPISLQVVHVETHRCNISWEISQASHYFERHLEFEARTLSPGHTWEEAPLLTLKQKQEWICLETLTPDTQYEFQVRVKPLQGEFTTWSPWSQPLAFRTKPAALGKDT
T2 sequence (looked up) 2: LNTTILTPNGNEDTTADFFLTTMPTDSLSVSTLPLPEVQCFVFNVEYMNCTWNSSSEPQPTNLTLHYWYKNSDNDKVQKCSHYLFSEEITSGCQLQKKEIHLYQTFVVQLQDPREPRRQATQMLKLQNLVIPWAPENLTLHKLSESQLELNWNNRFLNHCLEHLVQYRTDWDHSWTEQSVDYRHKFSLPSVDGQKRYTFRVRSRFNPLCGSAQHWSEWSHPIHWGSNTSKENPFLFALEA

binding result (IL2-Rα ectodomain): binds
binding result (IL-2Rβ/g Fc heterodimer): binds
B1: N88D (IL-2 mutein, monomeric IL-2/Fc fusion protein) (Fc fusion)
chain: not shown
modifications: biotin (BirA enzyme, AviTag)
notes: human interleukin-2 (IL-2) with N88D; source: Expi293 expression system, purified (MabSelect resin), biotinylated with BirA; not shown: Fc (human IgG1); mutations to prevent dimerization
